The results in this text go back to article PMC4336329 (PLoS ONE, 2015).

Out of some 310,000 compounds screened, about 14,000 (4.5%) showed an effect of 50% or more. The effect is printed as a negative number. This is one part of the list.
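Also: peak tail current of the secondary pulse compared with the same well before compound.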

The target in the experiment is human ether-à-go-go-related gene (hERG) potassium channel (human, UniProt Q12809). Put plainly: primary screen, population patch clamp on CHO cells stably expressing hERG.
human ether-à-go-go-related gene (hERG) potassium channel, sequence (Q12809 whole entry, looked up): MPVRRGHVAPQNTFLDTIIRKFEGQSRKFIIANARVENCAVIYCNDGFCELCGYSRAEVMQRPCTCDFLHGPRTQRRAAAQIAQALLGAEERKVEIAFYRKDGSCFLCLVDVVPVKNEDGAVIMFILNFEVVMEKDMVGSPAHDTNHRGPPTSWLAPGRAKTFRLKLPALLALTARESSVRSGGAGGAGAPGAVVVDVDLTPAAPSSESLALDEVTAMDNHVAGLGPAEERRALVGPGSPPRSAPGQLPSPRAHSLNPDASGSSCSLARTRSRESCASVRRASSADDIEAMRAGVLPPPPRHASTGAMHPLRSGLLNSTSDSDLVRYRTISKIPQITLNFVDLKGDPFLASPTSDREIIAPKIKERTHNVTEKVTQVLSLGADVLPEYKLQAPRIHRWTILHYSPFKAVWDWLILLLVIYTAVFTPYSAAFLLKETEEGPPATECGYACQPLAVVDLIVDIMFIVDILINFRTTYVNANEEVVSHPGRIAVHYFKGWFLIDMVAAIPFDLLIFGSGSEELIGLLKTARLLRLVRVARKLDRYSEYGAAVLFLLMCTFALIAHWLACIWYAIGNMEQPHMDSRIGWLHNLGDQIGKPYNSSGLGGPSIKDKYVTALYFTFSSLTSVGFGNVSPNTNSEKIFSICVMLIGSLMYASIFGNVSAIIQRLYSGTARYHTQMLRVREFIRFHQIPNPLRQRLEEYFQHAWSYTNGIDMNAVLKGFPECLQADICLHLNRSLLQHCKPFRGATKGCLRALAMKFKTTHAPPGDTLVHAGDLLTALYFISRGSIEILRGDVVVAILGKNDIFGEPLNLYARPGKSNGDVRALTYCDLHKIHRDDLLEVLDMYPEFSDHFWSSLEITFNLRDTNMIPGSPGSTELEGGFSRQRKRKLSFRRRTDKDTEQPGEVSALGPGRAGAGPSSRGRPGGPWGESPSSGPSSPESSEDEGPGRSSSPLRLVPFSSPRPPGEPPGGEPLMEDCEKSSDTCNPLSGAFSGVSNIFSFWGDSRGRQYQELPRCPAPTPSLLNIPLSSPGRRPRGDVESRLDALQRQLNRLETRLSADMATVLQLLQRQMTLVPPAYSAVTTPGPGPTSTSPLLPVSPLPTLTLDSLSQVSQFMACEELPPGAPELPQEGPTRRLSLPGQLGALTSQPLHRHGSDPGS
`Cc1cc(C)cc(C(=O)NCC(=O)OC(C)C(=O)N(C)c2ccccc2)c1` (stereo not shown): the “hERG current change (%, negative = inhibition) at 10uM” value was 12.2%.

Take `CN(C)S(=O)(=O)c1cccc(NC(=O)c2sccc2-c2ccccc2)c1`: the “hERG current change (%, negative = inhibition) at 10uM” value is listed as -26.1%. Next, `Cc1ccc(Cn2c(=N)c(C(=O)NCc3ccco3)cc3c(=O)n4ccccc4nc32)cc1`: -79.8%; `COc1ccc(NC(=O)CC2C(=O)NCCN2C(=O)c2ccccc2)cc1` (stereo not shown): 12.7%; `CC1=C(C(=O)Nc2cccc(C(=O)NCc3ccccc3C)c2)SCCO1`: 7.44%. As for `CCC(O)(CC)C(=O)NN(C(=O)CCl)c1ccccc1`, the “hERG current change (%, negative = inhibition) at 10uM” value is listed as 8.94%. Under `Cc1ccc(C(=O)COC(=O)CCC(=O)Nc2cccc(Cl)c2)cc1[N+](=O)[O-]` stands 11.7%.

For `O=S(=O)(N/N=C/c1ccc(F)cc1)c1ccccc1`, the “hERG current change (%, negative = inhibition) at 10uM” value came to 6.88%. In the case of `Cc1cc(N2CCCC2=O)cc(C)c1S(N)(=O)=O`, the “hERG current change (%, negative = inhibition) at 10uM” value came to 3.59%.

As to `COc1cccc(COc2ccc3c(C)cc(=O)oc3c2)c1`, the “hERG current change (%, negative = inhibition) at 10uM” value came to 8.93%.

Regarding `CC(C)CCN1CCN(Cc2c(F)cccc2Cl)CC1CCO` (stereo not shown), the “hERG current change (%, negative = inhibition) at 10uM” value is listed as -21.6%. With `COc1ccc(C(=O)c2c(-c3ccc(OC)cc3)oc3ccc(-c4ccc(OC)nc4)cc23)cc1`, the “hERG current change (%, negative = inhibition) at 10uM” value worked out at 12.8%. Next, `CCN(CC)Cc1c[nH]c2c(C(=O)OC)cccc12`: -15.3%; `O=C(Nc1cccc(-n2cnnn2)c1)c1cccnc1`: 4.53%.

Consider `O=C(NN1C(=O)C2CCCCC2C1=O)c1ccco1` (stereo not shown), for which the “hERG current change (%, negative = inhibition) at 10uM” value was 9.31%. Next, `Cc1nn(C(=O)CNC(=O)c2ccccc2)c(C)c1C`: 14.1%; `Cc1ccc(Nc2c([N+](=O)[O-])ccc3nonc23)cc1C`: 13.8%. Next, `COc1cccc(-c2ccc(NC(=O)C3CCCN(Cc4nccn4C)C3)cc2)c1` (stereo not shown): -31.8%; `CCN(C(=O)CCNC(=O)Cn1cnc2ccccc2c1=O)c1cccc(Cl)c1`: -4.36%. For the molecule `Cc1cccc(Nc2ncnc3onc(-c4cccc(Cl)c4)c23)c1`, the “hERG current change (%, negative = inhibition) at 10uM” value is 3.29%. In the case of `CCOc1ccc(-n2ccc(=O)c(C(=O)Nc3ccc(S(=O)(=O)Nc4nccs4)cc3)n2)cc1`, the “hERG current change (%, negative = inhibition) at 10uM” value amounted to 24.7%. Turning to `C=CCNC(=O)C1(c2ccccc2)CC1(Cl)Cl` (stereo not shown), the “hERG current change (%, negative = inhibition) at 10uM” value is reported as -5.1%. For `NS(=O)(=O)c1ccc(NC(=O)CN2C(=O)c3ccccc3C2=O)cc1`, the “hERG current change (%, negative = inhibition) at 10uM” value was 23.2%. Under `Cc1ccc(C2=NN(C(=O)CCC(=O)O)C(c3cccs3)C2)cc1` (stereo not shown) stands 15.2%; under `O=C(C/C=N\OCc1ccc([N+](=O)[O-])cc1)Nc1ccccc1`, -27.1%.
